A word on the Kd: it is the free concentration of one partner at which half of the binding sites on the other are occupied at equilibrium, for simple one-to-one binding.

Test [1] concerns the target T1, CSB-F fragment carrying RQK-AAA mutations (human, UniProt Q03468-1 123-203, R^176Q^177K^178-AAA).
T1 construct: CSB, human, residues 123-203 with R176Q177K178 changed to AAA; in pMCSG7 with a TEV-cleavable N-terminal 6X His-tag; No tag cleavage is described; also called CSB-F-AAA; CSB RQK-AAA(123-203); source: E. coli SoluBL21, purified (Ni-NTA)
Nature of the test: MST; RPA32C labelled with RED-tris-NTA (His-tag labelling kit), 100 nM mixed 1:1 with 2-fold serial dilutions of the ligand; 50 mM HEPES pH 8.0, 400 mM NaCl, 10% glycerol, 0.05% Tween-20; incubated 30 min at 37°C, measured at 25°C; three replicates. As to conditions: both partners purified.

Test [2] addresses T2, CSB fragment containing amino acids from 123 to 203 (human, UniProt Q03468-1 123-203).
T2 construct: CSB, human, residues 123-203; No tag cleavage is described; also called CSB(123-203); source: E. coli SoluBL21, purified (Ni-NTA, cation exchange)
The test is described as above. As to conditions: both partners purified.

B1: RPA32 construct spanning the region […] (domain or fragment)
chain: not shown
modifications: RED-tris-NTA dye on the His tag
notes: RPA32, […] (C-terminal winged helix domain); Cloned by LIC; also called RPA32([…]); C-terminal winged helix domain of RPA32; source: E. coli SoluBL21, purified (Ni-NTA, anion exchange, SEC)
In the case of B1, the Kd in test [1] is 4.41 µM; in test [2] it was 0.94 µM.

The record behind these values is publication PMC11109976, “CSB and SMARCAL1 compete for RPA32 at stalled forks and differentially control the fate of stalled forks in BRCA2-deficient cells” (Nucleic Acids Research, 2024).
